# Source: PubChem BioAssay AID488969 (Vanderbilt High Throughput Screening Facility, 2010)
# Whole data set: some 110,000 compounds, median “z-score” near -0.1, cut for the highest 2% near 2. The list shows a part of the results. The source made the active and inactive calls.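 Rule for the calls: active = z-score in the third read window above 3 or below -3; inactive = the rest.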
# Target: Metabotropic glutamate receptor 8 (Rattus norvegicus) (UniProt P70579)
# Assay: mGluR8 Gi/Go-coupled signaling modulation – cell-based, rat, thallium flux, HTS, primary screen (AID 488969)
# Conditions: HEK293 rat mGluR8, GIRK (G protein-gated inwardly rectifying potassium channel) thallium flux, FluoZin2; at 10 µM; stronger effect = higher value; submaximal glutamate (EC20) added with thallium
# Sequence of UniProt P70579 (P70579 whole entry, looked up): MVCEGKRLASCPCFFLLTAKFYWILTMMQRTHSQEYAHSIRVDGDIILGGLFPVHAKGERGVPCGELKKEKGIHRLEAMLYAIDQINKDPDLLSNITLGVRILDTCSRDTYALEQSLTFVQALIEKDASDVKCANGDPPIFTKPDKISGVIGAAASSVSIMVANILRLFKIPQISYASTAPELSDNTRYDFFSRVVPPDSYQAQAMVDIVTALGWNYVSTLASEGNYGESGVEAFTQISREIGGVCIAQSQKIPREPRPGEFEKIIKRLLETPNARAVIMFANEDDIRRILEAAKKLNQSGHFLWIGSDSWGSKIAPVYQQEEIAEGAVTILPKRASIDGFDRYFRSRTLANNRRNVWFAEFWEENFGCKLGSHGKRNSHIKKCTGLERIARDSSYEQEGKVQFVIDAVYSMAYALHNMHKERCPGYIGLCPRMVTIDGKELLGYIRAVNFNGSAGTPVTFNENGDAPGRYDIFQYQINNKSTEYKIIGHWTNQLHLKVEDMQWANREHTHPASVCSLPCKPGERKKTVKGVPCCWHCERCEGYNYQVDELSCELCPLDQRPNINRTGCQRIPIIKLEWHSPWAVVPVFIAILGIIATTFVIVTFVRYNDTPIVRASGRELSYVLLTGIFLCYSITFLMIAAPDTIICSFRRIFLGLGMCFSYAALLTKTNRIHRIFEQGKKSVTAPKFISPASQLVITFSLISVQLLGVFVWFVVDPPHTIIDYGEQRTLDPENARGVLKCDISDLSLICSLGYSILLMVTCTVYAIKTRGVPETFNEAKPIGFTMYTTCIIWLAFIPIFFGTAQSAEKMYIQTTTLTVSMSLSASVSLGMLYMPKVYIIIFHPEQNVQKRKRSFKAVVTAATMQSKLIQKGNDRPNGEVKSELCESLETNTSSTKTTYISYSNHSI
row,Structure (SMILES),z-score
1,O=C(COC(=O)c1ccc2ncsc2c1)Nc1ncc(Cl)cc1Cl,0.0132
2,O=C(CSc1ccc2c(c1)OCCO2)Nc1ccc2c(c1)OCO2,0.334
3,CCOC(=O)c1sc2nc[nH]c(=O)c2c1C,-0.318
4,O=c1/c(=C/c2ccccn2)sc2n1CN(c1ccccc1)CN=2,-0.675
5,COc1ccc2c(c1)-c1ccccc1S(=O)(=O)N2C(C)=O,-0.33
6,Cc1cccc(Oc2ccc(C(=O)NC3CCSC3=O)cn2)c1C (configuration not stated),0.251
7,CCOC(=O)CC1(C)NC(=O)c2c(C)sc(C(=O)OCC)c2N1 (configuration not stated),-0.0827
8,Cc1cc(C)nc(NS(=O)(=O)c2ccc(NC(=O)C3(c4ccc([N+](=O)[O-])cc4)CCCC3)cc2)n1,-0.0865
9,O=C(c1ccco1)N1CCN(C(=O)c2oc(=O)c3ccccc3c2-c2ccccc2)CC1,0.834
10,CCOC(=O)N1CCN(C(=O)CNC(=O)c2nn(-c3ccc(OC)cc3)c(=O)c3ccccc23)CC1,-0.19
11,Cc1ccc(CN2CCNC(=O)C2CC(=O)O)o1 (configuration not stated),-0.0906
12,CCOCCCN(Cc1ccco1)C(=O)c1cc2c(=O)[nH]c3ccc(C)cc3c2s1,-0.548
13,CCC(C)c1ccc(NC(=S)Nc2ccc(OC)cc2)cc1 (configuration not stated),0.436
14,O=C(Cn1cnc2c(cnn2-c2ccc(F)cc2)c1=O)NCC1CCCO1 (configuration not stated),0.105
15,COCCn1c(-c2ccc(OC)c(OC)c2)nc2ccccc21,1.11
16,c1cnc(NCCNc2ncccn2)nc1,-0.186
17,O=S(=O)(c1ccccc1)n1ccc(-c2cnc(-c3ccccc3)s2)n1,-0.268
18,COCCNC(=O)Cn1c(=O)n(CCCCCC(=O)Nc2ccccc2)c(=O)c2sccc21,-0.519
19,Cc1ccc(Nc2nnc(SCC3CCCCO3)s2)cc1 (configuration not stated),1.64
20,N/C(=N\OC(=O)c1ccc(F)cc1)c1ccccc1,-0.273
21,CC1CCc2cc(F)ccc2N1C(=O)CSc1nnc2c(n1)[nH]c1ccccc12 (configuration not stated),-0.526
22,Cn1nc(C(=O)N2CCOCC2)c2ccccc2c1=O,0.931
23,COc1ccc(Cn2nnnc2C(c2cccs2)N2CCN(c3ccc([N+](=O)[O-])cc3)CC2)cc1 (configuration not stated),0.00513

row,Structure (SMILES),z-score
1,Cc1c(NC(=O)CN2C(=O)c3ccccc3S2(=O)=O)c(=O)n(-c2ccccc2)n1C,-1.18
2,O=C(CN1C(=O)C2CC=CCC2C1=O)NC1=NCCS1 (configuration not stated),0.0586
3,Cc1ccc2nc(NC(=O)C3CCN(S(=O)(=O)c4cccnc4)CC3)sc2c1,0.122
4,OC1(C(F)(F)F)CC(O)(C(F)(F)F)n2nc(-c3ccccc3)cc2N1 (configuration not stated),0.0743
5,Cc1cc(NC(=O)CCC(=O)N(c2ccc(F)cc2)C(C(=O)NC2CCCC2)c2ccncc2)no1 (configuration not stated),0.0425
6,O=C(CC12CC3CC(CC(C3)C1)C2)NC(=S)N1CCCCC1,2.58
7,Cc1ccc(O)c(C(=O)c2cnc3c(c2)COc2ccccc2-3)c1,-0.0344
8,O=C1CCCN1CCCn1cnc2c([nH]c3ccc(F)cc32)c1=O,0.098
9,O=S(=O)(CCn1cccc1)CCn1cccc1,-0.116
10,CCOC(=O)C(=CNc1cc(C)ccc1C)C(=O)OCC,-1.37
11,CC(C)CCNC(=O)c1cc([N+](=O)[O-])ccc1N1CCOCC1,-0.139
12,COc1ccc(S(=O)(=O)N(CC(C)C)CC(C)C)c2cccnc12,-0.383
13,CCn1c(COc2ccc3c(c2)OCO3)nnc1SCC(=O)O,0.461
14,CCOc1ccc(CNC(=O)CCn2c(=O)oc3ccccc32)cc1,0.64
15,CC(C)CCNC(=O)C(C)N(Cc1ccc(F)cc1)C(=O)c1ccc(CN2CCCCC2)o1 (configuration not stated),-2.97
16,CN(C)S(=O)(=O)c1ccc(C(=O)N(c2ccccn2)c2ccccn2)cc1,1.58
17,COc1ccc(C(C#N)Nc2ccccc2)cc1 (configuration not stated),-0.0463
18,COc1ccc2c(c1)CCc1c(C(=O)N3CCCC3)noc1-2,-0.0276
19,CC(Nc1cc(N2CCN(S(C)(=O)=O)CC2)ccc1[N+](=O)[O-])c1ccccc1 (configuration not stated),-0.53
20,CCCN(CCO)Cc1ccc(Cl)c(Cl)c1,0.18
21,Cc1nc(NC(=O)/C=C/c2ccccc2)sc1C(=O)Nc1cccc(Cl)c1,-0.114
22,CSc1nnc(-c2ccccc2)n1N,0.0147
23,O=C(CCSc1nnc2scc(-c3ccccc3)n12)NCc1ccc2c(c1)OCO2,-0.963

row,Structure (SMILES),z-score
1,Cc1cc(C)cc(N2CC(c3nc4ccccc4n3C)CC2=O)c1 (configuration not stated),-0.0707
2,O=C(CCCn1c(SCC(=O)c2ccccc2)nc2ccccc2c1=O)NCC1CCCO1 (configuration not stated),-0.0998
3,O=S(=O)(N/N=C/c1c(F)cccc1Cl)c1ccccc1,-0.12
4,c1ccc(-c2cnc(-c3ccccc3)nc2)cc1,-0.0392
5,CC1(NC(=O)NCc2ccco2)CCS(=O)(=O)C1 (configuration not stated),-0.182
6,COc1ccc(NC(=S)Nc2nc(CC(=O)Nc3ccccc3OC)cs2)cc1,-0.494
7,O=C(CSc1nnc(Cc2cc(=O)[nH]c(=O)[nH]2)n1-c1ccccc1)N1CCCc2ccccc21,0.0633
8,CCCCOC(=O)C1CCC[C@@H](C)N1 (some centres not stated),0.585
9,O=C(CSc1nccc(-c2ccc(Br)cc2)n1)NCCc1ccccc1,-0.179
10,CCOC(=O)C1CCN(CC(=O)Nc2c(C(=O)OC)[nH]c3cccc(Cl)c23)CC1,-0.203
11,Cc1cccc(C=Nc2ccc3c(c2)oc2ccccc23)c1O,-0.126
12,COCc1[nH][nH]c(=O)c1C=Nc1ccc(F)cc1F,0.132
13,O=C(N/C(=C\c1ccc2c(c1)OCO2)C(=O)N1CCOCC1)c1cccs1,0.459
14,O=C(NCc1ccccc1)/C(=C/c1ccc(OC(F)F)cc1)c1ccccc1,-0.247
15,CCOC(=O)c1ccc(NC(=O)CSCc2ccco2)cc1,-0.177
16,CCN(CC)CCN(C)Cc1ccc(Br)cc1,0.0841
17,Cc1ccc2c(c1)cc(CN(Cc1ccco1)S(=O)(=O)c1ccccc1)c1nnnn12,-0.158
18,COc1ccc(C2N(c3cc(Cl)ccc3OC)C(=O)C3CCCN32)cc1 (configuration not stated),-0.0897
19,O=C(NCCc1nc(-c2ccccc2)cs1)c1ccc(Br)cc1,-0.406
20,Cc1ccc(N(C(=O)Cn2nnc(-c3ccc(C)o3)n2)C(C(=O)NC2CCCC2)c2ccco2)cc1 (configuration not stated),0.235
21,CC(=O)Nc1ccc(/C(C)=N/NS(=O)(=O)c2ccc(C)cc2)cc1,-0.422
22,Cc1ccc(CN=C2Nc3ccccc3CS2)cc1,-0.225
23,c1ccc(CN2C3=NCCCN3c3ccccc32)cc1,2.93

row,Structure (SMILES),z-score
1,COc1ccc2nc(-c3ccccc3)[nH]c2c1,-0.00455
2,C=CCN1C(=O)NC2(O)C(=O)c3ccccc3C12O (configuration not stated),0.455
3,Cc1ccc(C(=O)C(OC(=O)CNS(=O)(=O)c2ccccc2)c2ccccc2)cc1 (configuration not stated),-0.353
4,COc1cc(CNCCCN2CCOCC2)ccc1OCC(=O)Nc1cccc(C(F)(F)F)c1,0.352
5,Cc1ccc2cc(CN(Cc3ccc4c(c3)OCO4)Cc3nnnn3Cc3ccco3)c(=O)[nH]c2c1C,-0.474
6,CCCCn1cc(C(C)(C)C)c(C#N)c1NC(C)=O,-0.17
7,COC(=O)c1c(O)cc(C(C)(C)C)n(-c2ccc(F)cc2)c1=O,0.192
8,Cc1ccc(S(=O)(=O)NCC(=O)OCc2nnc(-c3ccccc3)o2)cc1C,-2.83
9,Cc1ccc(-c2nnc(SCC(=O)N3CCN(c4ccccc4)CC3)o2)cc1,-1.07
10,CCNC(=O)COc1cc(C)c(Cl)c(C)c1,-0.203
11,Nn1c(COc2ccccc2)nnc1SCC(=O)O,0.451
12,CCC(=O)Nc1ccc(S(=O)(=O)Nc2ncccn2)cc1,0.251
13,O=C1CC(N2CCN(c3ccccc3)CC2)C(=O)N1c1ccc2c(c1)OCCO2 (configuration not stated),-0.0551
14,NC(=S)Nn1c(CCC(=O)O)ccc1-c1ccccc1,0.124
15,COc1cc2c(N3CCOCC3)cc(O)c(CC(=O)Nc3ccccc3)c2cc1OC,0.761
16,O=[N+]([O-])c1ccc(N2CCN(C(=S)NC3CCCCC3)CC2)cc1,-0.459
17,O=C(CSc1nnc(-c2ccncc2)n1Cc1ccco1)Nc1nccs1,0.049
18,CC1(C)Cc2ccccc2-c2nnc(-c3ccc(O)cc3)n21,-0.112
19,COc1cc(-c2nnc(-c3ccccc3)o2)cc(OC)c1OC,-0.974
20,Cc1ccc(/C=N/NC(=O)CC(=O)NCc2cccnc2)cc1,-0.106
21,Cc1cc(=O)[nH]c2ccc(Cl)cc12,0.699
22,COc1ccc(N(CC(=O)N2CCc3ccccc3C2)S(C)(=O)=O)cc1,0.0342
23,O=C(c1ccccc1)c1nc2ccccc2n(CCCn2c(=O)c(C(=O)c3ccccc3)nc3ccccc32)c1=O,1.05

row,Structure (SMILES),z-score
1,Cc1ccc(-n2nnnc2SCC(=O)Nc2c(C)n(C)n(-c3ccccc3)c2=O)cc1,0.269
2,COc1ccc(OC)c(NC(=O)C2CC(C)=C(C)CC2C(=O)O)c1 (configuration not stated),-0.452
3,Cc1cc(-c2c(C)[nH]n(-c3ccccc3)c2=O)n(-c2ccccc2)n1,-0.186
4,Cc1nc2ccccc2c2c1C(=O)N(Cc1cccnc1)C2=O,-0.146
5,CCCc1cc(=O)[nH]c(SCc2ccc(C#N)cc2)n1,-1.26
6,O=C(NCc1ccccn1)c1ccc(Cl)s1,0.0151
7,Cc1cc(N/N=C/c2ccc(O)c(C)c2O)nc(-c2ccccc2O)n1,-0.0442
8,CN1CCC(OC(=O)c2cccc(Br)c2)CC1,0.151
9,O=C(COC(=O)C12CC3CC(CC(C3)C1)C2)NCCc1ccccc1,-0.177
10,O=C(N/N=C/c1ccc([N+](=O)[O-])s1)c1cccc(Br)c1,active: 6.96
11,Cc1ccc(N=Nc2c(C)[nH][nH]c2=O)c(C)c1,0.772
12,O=C(NCCCO)Nc1ccc2nc(-c3ccco3)c(-c3ccco3)nc2c1,0.111
13,c1ccc(Cc2nnc3sc(-c4cccnc4)nn23)cc1,-0.104
14,O=C(CCCN1C(=O)c2ccccc2C1=O)NCc1cccnc1,0.675
15,O=C(NN1C(=O)C2C(C1=O)C1C=CC2C12CC2)c1ccncc1 (configuration not stated),-0.195
16,C=CCNC(=O)c1cc(Cl)ccc1[N+](=O)[O-],-0.495
17,CCCCc1nc2ccccc2c(C(=O)O)c1C,-0.453
18,Cc1ccc(S(=O)(=O)Nc2ccc(Cl)cc2)cc1NC(=O)Cn1cnc2c1c(=O)n(C)c(=O)n2C,-0.355
19,Cc1cccc2c(=O)n3c(nc12)CCCCC3,-0.287
20,COc1ccc2[nH]c3nc(SCC(=O)NNC(=O)c4ccc(OC)c(OC)c4)nnc3c2c1,0.0876
